The results in this text go back to the supplement of paper PMC12217912.

The list shows a part of the results. The full chains were built here from the parent and the listed change. Inactive controls read about 0.05.

The chains are these.
B1: TEV protease; numbered along this chain (parent)
chain: MGESLFKGPRDYNPISSSICHLTNESDGHTTSLYGIGFGPFIITNKHLFRRNNGTLVVQSLHGVFKVKDTTTLQQHLVDGRDMIIIRMPKDFPPFPQKLKFREPQREERICLVTTNFQTKSMSSMVSDTSCTFPSGDGIFWKHWIQTKDGQCGSPLVSTRDGFIVGIHSASNFTNTNNYFTSVPKNFMELLTNQEAQQWVSGWRLNADSVLWGGHKVFMVKPEEPFQPVKEATQL

The test covers variants of B1. Nature of the test: raw area under fraction-flipped curve 0-4 h after induction (AUC4h, not background-subtracted), DNA-recorder readout of cleavage of the substrate (dimensionless); higher = more cleavage of the substrate by the protease variant. To be noted: temperature: 34 °C; time window: 0-4 h after rhamnose induction. How it is done:
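In vivo DNA recorder in E. coli TOP10(DE3) ΔrhaA at 34 °C. Each TEVp single-site mutant (parent TEVp 0) is paired with a single-site variant of the 7-mer TEVs (canonical ENLYFQ|S). The substrate sits between flexible linkers in a Bxb1-sfGFP-TEVs-SsrA fusion, so cleavage stabilises Bxb1 and speeds flipping of a recombination array, read by NGS. The value is the raw area under the fraction-flipped curve over 0-4 h after rhamnose induction (AUC4h), with ≥20 reads per time point. It is not background-subtracted; inactive controls average about 0.047.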
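Also: Bxb1 expression induced with 0.2% (w/v) L-rhamnose at OD600 near 0.5, cultures sampled hourly, flipped fraction per protease–substrate barcode pair counted by paired-end Illumina sequencing.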

On to M88W, for which the “area with substrate ANLYFQS” value was determined as 0.054, the “area with substrate CNLYFQS” value stood at 0.0403, the “area with substrate DNLYFQS” value was determined as 0.0694 and the “area with substrate GNLYFQS” value stood at 0.0664. Moreover, the “area with substrate HNLYFQS” value worked out at 0.0532, the “area with substrate KNLYFQS” value stood at 0.0447, the “area with substrate MNLYFQS” value is 0.0516 and the “area with substrate NNLYFQS” value came out at 0.0514. The “area with substrate PNLYFQS” value turned out to be 0.0482, the “area with substrate QNLYFQS” value was found to be 0.0647, the “area with substrate TNLYFQS” value was found to be 0.052 and the “area with substrate VNLYFQS” value is 0.0564. Moreover, the “area with substrate WNLYFQS” value was found to be 0.0232.

As to M88Y, the “area with substrate ANLYFQS” value was 0.0505, the “area with substrate CNLYFQS” value is 0.0517, the “area with substrate LNLYFQS” value worked out at 0.051 and the “area with substrate MNLYFQS” value was 0.0298. The “area with substrate NNLYFQS” value was 0.0393, the “area with substrate PNLYFQS” value was determined as 0.0371 and the “area with substrate VNLYFQS” value is 0.0605.

On to M88E, for which the “area with substrate ANLYFQS” value came to 0.028, the “area with substrate CNLYFQS” value stood at 0.0403, the “area with substrate DNLYFQS” value worked out at 0.0779 and the “area with substrate FNLYFQS” value came out at 0.0622. Also, the “area with substrate GNLYFQS” value is 0.0655, the “area with substrate HNLYFQS” value worked out at 0.0494, the “area with substrate INLYFQS” value came out at 0.0617 and the “area with substrate KNLYFQS” value came to 0.0504. Further, the “area with substrate LNLYFQS” value worked out at 0.0305, the “area with substrate MNLYFQS” value came out at 0.0455, the “area with substrate PNLYFQS” value was determined as 0.0442 and the “area with substrate SNLYFQS” value was 0.0478. The “area with substrate TNLYFQS” value was found to be 0.0538 and the “area with substrate WNLYFQS” value was 0.0554.

Regarding M88G, the “area with substrate ANLYFQS” value turned out to be 0.0416, the “area with substrate DNLYFQS” value is 0.0634, the “area with substrate FNLYFQS” value was 0.0427 and the “area with substrate HNLYFQS” value worked out at 0.0459. In addition, the “area with substrate INLYFQS” value is 0.0438, the “area with substrate LNLYFQS” value is 0.0418, the “area with substrate MNLYFQS” value was 0.056 and the “area with substrate NNLYFQS” value was 0.0394. The “area with substrate PNLYFQS” value turned out to be 0.0479 and the “area with substrate VNLYFQS” value is 0.0498.

On to P40F, for which the “area with substrate ANLYFQS” value was 0.0634, the “area with substrate CNLYFQS” value was found to be 0.12, the “area with substrate FNLYFQS” value turned out to be 0.0586 and the “area with substrate GNLYFQS” value is 0.072. Besides, the “area with substrate HNLYFQS” value stood at 0.0511, the “area with substrate INLYFQS” value was 0.0591, the “area with substrate LNLYFQS” value stood at 0.0576 and the “area with substrate MNLYFQS” value was determined as 0.0651. Also, the “area with substrate NNLYFQS” value was 0.0812, the “area with substrate PNLYFQS” value came to 0.0671, the “area with substrate QNLYFQS” value was 0.0828 and the “area with substrate SNLYFQS” value came out at 0.0591. Besides, the “area with substrate TNLYFQS” value stood at 0.0631, the “area with substrate WNLYFQS” value was 0.0357 and the “area with substrate YNLYFQS” value worked out at 0.0553.

As for P40T, the “area with substrate ANLYFQS” value amounted to 0.0603, the “area with substrate CNLYFQS” value is 0.0521, the “area with substrate DNLYFQS” value turned out to be 0.0755 and the “area with substrate FNLYFQS” value was determined as 0.055. Besides, the “area with substrate GNLYFQS” value came to 0.0677, the “area with substrate HNLYFQS” value is 0.0617, the “area with substrate INLYFQS” value turned out to be 0.063 and the “area with substrate KNLYFQS” value was 0.067. In addition, the “area with substrate LNLYFQS” value was determined as 0.0696, the “area with substrate MNLYFQS” value turned out to be 0.0635, the “area with substrate NNLYFQS” value came to 0.0541 and the “area with substrate PNLYFQS” value came out at 0.0652. Besides, the “area with substrate RNLYFQS” value was 0.0695, the “area with substrate SNLYFQS” value was determined as 0.0679, the “area with substrate TNLYFQS” value is 0.0837 and the “area with substrate VNLYFQS” value turned out to be 0.0525. Also, the “area with substrate WNLYFQS” value is 0.0624 and the “area with substrate YNLYFQS” value stood at 0.078.

Take P40K: the “area with substrate ANLYFQS” value is 0.0848, the “area with substrate CNLYFQS” value stood at 0.0767, the “area with substrate DNLYFQS” value amounted to 0.0846 and the “area with substrate GNLYFQS” value is 0.0664. Also, the “area with substrate HNLYFQS” value is 0.0732, the “area with substrate INLYFQS” value is 0.0618, the “area with substrate MNLYFQS” value is 0.0632 and the “area with substrate NNLYFQS” value is 0.0733. For the same variant, the “area with substrate SNLYFQS” value stood at 0.0495, the “area with substrate TNLYFQS” value worked out at 0.07, the “area with substrate VNLYFQS” value stood at 0.0643 and the “area with substrate WNLYFQS” value is 0.0591. Also, the “area with substrate YNLYFQS” value is 0.0631.
